Reference: PubChem BioAssay AID588579 (National Center for Advancing Translational Sciences (NCATS), 2011)
Where “and” joins values, the source holds several entries; their conditions need not be identical. Identical values can stand only once. The campaign covered roughly 400,000 compounds. About 2,200 (0.55%) were called active. Roughly 1% stayed inconclusive and do not appear here. The call rests on the fitted dose curve; in most records, active means well fitted inhibition curve with a large enough effect; inconclusive means small, poorly fitted or top-dose-only effect, or another doubt; inactive means no such curve, though single readings can be large or run the other way. The list shows a part of the results, in another mix than the full data. A structure can be active in one record and inactive in another. Non-standard residues stand in square brackets, D forms with d. Residues, ends and D or L forms follow the SMILES beside them. pGlu = O=C1CC[C@@H](C(=O)O)N1

Target: DNA polymerase kappa (Homo sapiens) (UniProt Q9UBT6)
UniProt Q9UBT6, sequence (Q9UBT6 whole entry, looked up): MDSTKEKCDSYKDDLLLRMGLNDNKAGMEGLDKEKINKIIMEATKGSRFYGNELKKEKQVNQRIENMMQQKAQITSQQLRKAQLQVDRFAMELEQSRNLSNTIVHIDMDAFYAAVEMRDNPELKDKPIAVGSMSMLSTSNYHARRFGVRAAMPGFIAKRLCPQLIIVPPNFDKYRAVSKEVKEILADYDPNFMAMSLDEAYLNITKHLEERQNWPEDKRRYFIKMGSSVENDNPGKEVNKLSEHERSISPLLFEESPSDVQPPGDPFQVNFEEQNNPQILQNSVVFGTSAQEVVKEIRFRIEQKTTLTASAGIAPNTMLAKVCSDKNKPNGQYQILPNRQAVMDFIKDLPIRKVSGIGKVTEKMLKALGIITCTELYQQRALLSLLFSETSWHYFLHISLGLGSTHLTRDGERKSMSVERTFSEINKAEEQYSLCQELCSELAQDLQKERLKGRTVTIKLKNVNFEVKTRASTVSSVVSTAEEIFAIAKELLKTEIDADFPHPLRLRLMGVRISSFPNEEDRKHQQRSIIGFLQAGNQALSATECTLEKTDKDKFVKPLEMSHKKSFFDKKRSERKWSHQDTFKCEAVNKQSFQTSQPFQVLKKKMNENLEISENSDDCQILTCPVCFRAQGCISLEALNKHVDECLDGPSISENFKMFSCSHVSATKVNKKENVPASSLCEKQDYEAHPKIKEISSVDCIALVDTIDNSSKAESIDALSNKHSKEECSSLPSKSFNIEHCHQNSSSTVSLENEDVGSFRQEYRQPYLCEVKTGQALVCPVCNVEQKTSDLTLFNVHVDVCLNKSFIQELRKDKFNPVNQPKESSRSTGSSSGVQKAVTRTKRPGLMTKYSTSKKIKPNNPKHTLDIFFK
Assay: qHTS for Inhibitors of Polymerase Kappa
Conditions: purified Pol kappa, fluorescent DNA synthesis assay, 10 min; series mostly up to 107 µM; activity, negative = inhibition: at the top concentration
Summary of the method: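 Kinetic fluorescence screen: compound preincubated 15 min RT with 10 nM enzyme; 50 nM substrate (final) initiates; reads at 0/10 min.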
On the % scale 0 is the no-effect control and ±100 the full control effect; potency means the concentration at half of the fitted maximal effect.

Molecule | Potency | activity, negative = inhibition
Cc1oc2c(O)c(O)ccc2c(=O)c1-c1cnn(-c2ccccc2)c1 | active: 39.8 µM | 
COc1cc(N)c(Cl)cc1C(=O)OCCN1CCCCC1 | inactive | 
CC1c2cccc(O)c2C(O)=C2C(=O)[C@]3(O)C(O)=C(C(N)=O)C(=O)C(N(C)C)C3C(O)C21 (stereo not given in full) |  | inactive: -8.02% [at 60.1 µM]
CCOc1ccc(NC(=O)CN(C)S(=O)(=O)c2ccc(-c3ccc(=O)[nH]n3)s2)cc1 | active: 89.1 µM | 
CC1=NN(c2ccccc2)C(=O)C1/C=C1/NC(=S)NC1=O (stereo not given) |  | inactive: -6.41%
CCOc1ccc(N/C(C)=C\C(=O)c2ccc3c(c2)OCCO3)cc1 |  | inactive: -2.98%
Cc1ccc(S(=O)(=O)OCC(=O)Nc2ccc(C(=O)O)c(O)c2)cc1 | active: 25.1 µM | 
CCN(CC)c1ccc2nc3ccc(N)cc3[n+](-c3ccccc3)c2c1 | active: 22.4 µM | 
Cc1cccc(N(C)C(=S)Oc2ccc3ccccc3c2)c1 | inactive | 
CN(Cc1cnc2nc(N)nc(N)c2n1)c1ccc(C(=O)NC(CCC(=O)O)C(=O)O)cc1 (stereo not given) | inactive | 
c1ccc(-c2ccc(OCCN3CCCC3)cc2)cc1 |  | inactive: 13.7% [at 60.1 µM]
CC(=O)OCC1=C(C(=O)O)N2C(=O)[C@@H](NC(=O)Cc3ccccc3)[C@H]2SC1 |  | inactive: 0%
CCOc1ccc(Cc2nccc3cc(OCC)c(OCC)cc23)cc1OCC |  | inactive: -19.5% [at 19.4 µM]
COc1ccc(C(CC(=O)N2CCCCC2)c2c(OC)cc(OC)c3ccc(=O)oc23)cc1 (stereo not given) |  | inactive: 1.71%
O=c1c(-c2ccc([N+](=O)[O-])cc2)coc2c(O)c(O)ccc12 | active: 7.08 µM | 
CC(N)=NCc1cccc(CN)c1 | inactive | 
CN1CCCN=C1/C=C/c1cccs1 |  | inactive: -0.513%
Fc1ccccc1OCCCn1ccnc1 |  | inactive: 24%
CC/C=C\C/C=C\C/C=C\C/C=C\C/C=C\C/C=C\CCC(=O)O |  | inactive: -10.4% [at 19.4 µM] and inactive: -2.07% [at 19.4 µM]
Cc1ccc2nc(/C(C#N)=C/c3ccc(-c4cccc(Cl)c4)o3)[nH]c2c1 | active: 50.1 µM | 
Cc1ccc(Sc2cncc3sc(C(N)=O)cc23)cc1 |  | inactive: 16.9% [at 60.1 µM]
O=C(O)c1cc(=O)c2ccccc2[nH]1 | inactive | 

Molecule | Potency | activity, negative = inhibition
O=c1cc(-c2ccc(O)c(O)c2)oc2cccc(O)c12 | active: 6.31 µM | 
O=C(CCCC[C@@H]1SC[C@H]2NC(=O)N[C@H]12)Nc1ccc(C(=O)O)cc1 |  | inactive: 14.9% [at 60.1 µM]
O=C1C[C@@H](c2ccc(O)c(O)c2)Oc2c1ccc(O[C@@H]1O[C@H](CO)[C@@H](O)[C@H](O)[C@H]1O)c2O | active: 2.67 µM | 
Oc1ccc(-c2csc(Nc3cccc4ccccc34)n2)cc1O | active: 50.1 µM | 
COc1cc(/C=N/N2C(=O)CSC2=S)cc(Br)c1O | active: 39.8 µM | 
O=C(CSc1nc2ccsc2c(=O)n1NC(=O)c1ccccc1)NCc1ccco1 | active: 79.4 µM | 
COc1cc2nc(N3CCCN(C)CC3)nc(NC3CCN(Cc4ccccc4)CC3)c2cc1OC | inactive | 
O=S(=O)(c1ccc(Cl)cc1)N1CCN(c2nc(-c3cccs3)nc3ccccc23)CC1 | inactive | 
CCCCOC(=O)c1cc2c(cn1)[nH]c1ccccc12 |  | inactive: 0.0566% [at 19.4 µM] and inactive: 2.68% [at 19.4 µM]
CCOC(=O)c1sc2nc3c(SCC(=O)O)cc(C(=O)c4cc(F)ccc4O)cn3c(=O)c2c1C | active: 50.1 µM | 
CCOC(=O)c1cc2c(=O)n3ccccc3nc2n(Cc2ccco2)c1=NC(=O)c1ccccc1OC |  | inactive: -7.92%
C[C@@H]1CN(c2c(F)c(F)c3c(=O)c(C(=O)O)cn(C4CC4)c3c2F)C[C@H](C)N1 | inactive | 
CC1CCCN(Cc2c(O)ccc3c2O/C(=C\c2ccco2)C3=O)C1 (stereo not given) | active: 35.5 µM | 
CCCCC/C=C\C/C=C\C/C=C\CCCCC(=O)O |  | inactive: 6.17% [at 19.4 µM]
COc1ccc(NC(=O)CC2Nc3cccc4cccc(c34)NC2=O)cc1 (stereo not given) |  | inactive: 6.07%
Cc1c(S(=O)(=O)O)oc2c1C(=O)C(=O)c1c-2ccc2c1CCCC2(C)C | active: 35.5 µM | 
NS(=O)(=O)c1cc2c(cc1C(F)(F)F)N[C@H](Cc1ccccc1)NS2(=O)=O |  | inactive: -4.97% [at 12 µM]
N=C1/C(=C\c2ccc(Br)o2)C(=O)N=C2SC(CC(=O)N3CCCCC3)=NN12 | active: 31.6 µM | 
CCN(CC(=O)Nc1c(F)cccc1F)C(=O)/C=C/c1ccc2ccccc2n1 | active: 8.91 µM | 
CN(C)CCCC1(c2ccc(F)cc2)OCc2cc(C#N)ccc21 (stereo not given) | inactive | 
CCCC(CCC)C(=O)O | inactive | 
O=S1(=O)[C@H]2C[C@@H]3C=C[C@@]2(CN1Cc1ccc(F)cc1)O3 |  | inactive: 0%

Molecule | Potency | activity, negative = inhibition
CN(C)CCC(c1ccc(Cl)cc1)c1ccccn1 (stereo not given) | inactive | 
H-MSRPACPNDKYE-OH |  | inactive: 15.3% [at 60.1 µM]
CC(=O)O[C@H]1Cc2ccccc2N(C(N)=O)c2ccccc21 | inactive | 
CN(Cc1ccccc1)c1ccc(/C=C/c2nc3ccccc3s2)cc1 | active: 25.1 µM | 
N#Cc1ccc(-c2cccnc2)nc1SCC(=O)Nc1sc2c(c1C#N)CCC2 | active: 79.4 µM | 
NC(=O)[C@@H]1CCCN1C(=O)[C@H](Cc1cnc[nH]1)NC(=O)[C@@H]1CCC(=O)N1 |  | inactive: 2.2% [at 60.1 µM]
COc1ccc(S(=O)(=O)Nc2c(C)n(C)n(-c3ccccc3)c2=O)cc1Br |  | inactive: 3.53%
CC(C)(C)NC(=O)[C@@H]1CN(Cc2cccnc2)CCN1C[C@@H](O)C[C@@H](Cc1ccccc1)C(=O)N[C@H]1c2ccccc2C[C@H]1O |  | inactive: -8.71%
O=C(O)c1ccccc1Nc1cccc(OCc2ccc3ccccc3n2)c1 | inactive | 
CCCCCCCC/C=C\CCCCCCCC(=O)O |  | inactive: -4.94%
Cn1c(=O)c2c(ncn2C)n(C)c1=O | inactive | 
Cc1c(Cl)cnc(NC(=O)COC(=O)/C=C/c2ccco2)c1Cl | active: 79.4 µM | 
Cc1ccc(C)c(NC(=O)CN(C)C(=O)c2cccc(-n3cccc3)c2)c1 | active: 39.8 µM | 
COc1cc(/C=C2\SC(=Nc3ccc(Cl)c(C(=O)O)c3)NC2=O)c(Br)c(Br)c1O | active: 39.8 µM | 
O=C(O)c1cc(-c2ccco2)nc2ccc(Br)cc12 |  | inactive: -5.03%
C=C1CCC2[C@](C)(CO)[C@H](O)CC[C@@]2(C)[C@@H]1/C=C/C1=CCOC1=O (stereo not given in full) |  | inactive: 0.0271%
COc1ccc(NC=O)c(C(=O)CCNC(C)=O)c1 |  | inactive: 16.9% [at 60.1 µM]
CCOC(=O)C(C(C)=O)c1c(Br)c(O)c(O)c2c(C(=O)c3ccc(C)cc3)coc12 (stereo not given) | active: 50.1 µM | 
Nc1ncc(N=Nc2cc(C(=O)O)ccc2Cl)s1 | active: 79.4 µM | 
Cc1cccc2cc(C(c3nnnn3C(C)(C)C)N(Cc3ccco3)CC3CCCO3)c(=O)[nH]c12 (stereo not given) | active: 44.7 µM | 
CC(=O)C[C@H](O)CC(=O)[C@@H]1OC(=O)CCCCCc2ccccc21 |  | inactive: 2.86%
O=C1CC[C@@H](C(=O)N[C@@H](Cc2cnc[nH]2)C(=O)N[C@@H](Cc2c[nH]c3ccccc23)C(=O)N[C@@H](CO)C(=O)N[C@@H](Cc2ccc(O)cc2)C(=O)O)N1 ([pGlu]HWSY-OH) |  | inactive: 18.1% [at 60.1 µM]

Molecule | Potency | activity, negative = inhibition
Cc1nc2c(OCc3ccccc3)cccn2c1CC#N |  | inactive: -7.9% [at 19.4 µM]
O=C1NN(c2cccc(Br)c2)C(=O)/C1=C/c1ccc(-c2cc([N+](=O)[O-])ccc2O)o1 | active: 79.4 µM | 
NC(=O)CSc1ncc2c(n1)-c1ccccc1N(Cc1cccc(F)c1)S2(=O)=O |  | inactive: 25.6%
C[C@@H]1C(c2ccccc2)=NN(c2ccc(Br)cc2)[C@H]1C(=O)N1CCOC1=O |  | inactive: -0.702%
COc1ccc(NC(=O)/C(C#N)=C/C=C/c2ccco2)cc1 |  | inactive: -12.5%
O=C1/C(=C\c2ccco2)CCC/C1=C\c1ccco1 | active: 8.91 µM | 
Cc1c(Cl)cccc1NS(=O)(=O)c1ccc2c(c1)C1C=CCC1C(c1ccc(C(=O)O)cc1)N2 (stereo not given) | active: 2.82 µM | 
NS(=O)(=O)c1cc2c(cc1C(F)(F)F)NC(Cc1ccccc1)NS2(=O)=O (stereo not given) |  | inactive: 13.8%
CSCC[C@H](NC(=O)[C@H](CCCNC(=N)N)NC(=O)[C@H](Cc1ccc(O)cc1)NC(=O)[C@@H]1CCCN1C(=O)CNC(=O)[C@H](CCC(=O)O)NC(=O)[C@H](CC(=O)O)NC(=O)[C@H](CCCCN)NC(=O)[C@H](CCCCN)NC(=O)[C@H](CCC(=O)O)NC(=O)[C@H](C)N)C(=O)N[C@@H](CCC(=O)O)C(=O)N[C@@H](Cc1cnc[nH]1)C(=O)N[C@@H](Cc1ccccc1)C(=O)N[C@@H](CCCNC(=N)N)C(=O)N[C@@H](Cc1c[nH]c2ccccc12)C(=O)NCC(=O)N[C@@H](CO)C(=O)N1CCC[C@H]1C(=O)N1CCC[C@H]1C(=O)N[C@@H](CCCCN)C(=O)N[C@@H](CC(=O)O)C(=O)O |  | inactive: 15.6% [at 60.1 µM]
COc1cccc(NC(=O)CCNS(=O)(=O)c2ccc(Br)s2)c1 |  | inactive: -16%
NS(=O)(=O)c1cc2c(cc1Cl)N[C@@H]([C@@H]1C[C@@H]3C=C[C@H]1C3)NS2(=O)=O |  | inactive: -9.54% [at 19.4 µM]
O=C(/C=C/c1ccc(/C=C/C(=O)Nc2ccc(C3=NCCN3)cc2)cc1)Nc1ccc(C2=NCCN2)cc1 | active: 18.9 µM | 
Cc1c(C(=O)O)cccc1-c1ccc(/C=N/n2cnnc2)o1 | active: 89.1 µM | 
O=C(O)CCCNC(=O)/C=C/c1ccco1 | active: 50.1 µM | 
CC(C)C[C@H](NC(=O)[C@@H]1O[C@H]1C(=O)O)C(=O)NCCCCN=C(N)N |  | inactive: 13%
Cc1ccc(S(=O)(=O)N2CCC(=O)N(CCOC(=O)Nc3cc(C)cc(C)c3)CC2)cc1 |  | inactive: -3.13%
CC(C)(C)NC[C@H](O)COc1cccc2c1CCC(=O)N2 |  | inactive: -3.86% [at 12 µM]
CCCCCCCCCCCCN1[C@@H](CC(=O)O)c2cc(C(F)(F)F)ccc2S1(=O)=O |  | inactive: -16.2%
CCn1c(SCC(=O)N/N=C/C=C/c2ccco2)nnc1-c1ccccc1 | active: 79.4 µM | 
